Measured values as given in paper PMC5302899.
These are yes or no findings as the source states them, for the method shown. In cells and extracts the contact can be indirect. Some entries that bind do so weakly or less than the wild type.

Amino acid sequences for entries named in this document (tags omitted).
UniProt P03146: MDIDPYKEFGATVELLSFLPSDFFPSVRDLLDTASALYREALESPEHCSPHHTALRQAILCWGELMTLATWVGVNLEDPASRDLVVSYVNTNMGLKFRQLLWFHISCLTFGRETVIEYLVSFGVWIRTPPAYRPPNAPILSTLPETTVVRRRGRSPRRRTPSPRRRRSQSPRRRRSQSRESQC
UniProt P03165: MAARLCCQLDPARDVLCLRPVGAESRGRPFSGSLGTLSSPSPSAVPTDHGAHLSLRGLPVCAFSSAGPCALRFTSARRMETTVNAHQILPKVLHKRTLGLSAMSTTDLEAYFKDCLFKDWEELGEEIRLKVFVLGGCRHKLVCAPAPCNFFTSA
UniProt P23771: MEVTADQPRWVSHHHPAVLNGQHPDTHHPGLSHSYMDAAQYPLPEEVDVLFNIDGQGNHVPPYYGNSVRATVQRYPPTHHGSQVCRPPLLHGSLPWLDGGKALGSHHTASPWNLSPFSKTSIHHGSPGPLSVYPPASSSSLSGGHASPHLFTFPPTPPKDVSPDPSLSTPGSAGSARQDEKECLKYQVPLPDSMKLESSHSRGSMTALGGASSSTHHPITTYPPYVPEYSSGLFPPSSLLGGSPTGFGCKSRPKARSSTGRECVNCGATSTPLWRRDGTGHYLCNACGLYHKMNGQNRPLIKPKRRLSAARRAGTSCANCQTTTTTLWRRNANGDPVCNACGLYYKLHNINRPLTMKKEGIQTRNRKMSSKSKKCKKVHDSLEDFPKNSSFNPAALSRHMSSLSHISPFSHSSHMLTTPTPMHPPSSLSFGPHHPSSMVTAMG
UniProt P23769: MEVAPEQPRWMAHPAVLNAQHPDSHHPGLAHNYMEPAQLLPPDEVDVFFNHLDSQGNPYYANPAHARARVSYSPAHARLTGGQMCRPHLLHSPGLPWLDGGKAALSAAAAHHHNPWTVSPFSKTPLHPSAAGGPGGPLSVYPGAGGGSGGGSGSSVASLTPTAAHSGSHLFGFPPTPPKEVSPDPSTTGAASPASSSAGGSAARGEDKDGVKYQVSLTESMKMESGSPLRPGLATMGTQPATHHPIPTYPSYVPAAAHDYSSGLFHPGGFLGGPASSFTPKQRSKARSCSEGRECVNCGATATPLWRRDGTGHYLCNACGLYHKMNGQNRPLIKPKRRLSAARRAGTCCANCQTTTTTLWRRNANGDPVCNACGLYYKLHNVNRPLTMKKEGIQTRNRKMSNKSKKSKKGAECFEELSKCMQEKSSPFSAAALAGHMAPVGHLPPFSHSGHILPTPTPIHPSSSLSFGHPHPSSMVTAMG

Experiments:
Experiment in all cases: co-IP; HepG2.2.15 cell lysates (25 mM Tris, 150 mM NaCl, 1 mM EDTA, 1 mM EGTA, 20 mM sodium molybdate, 0.5% Nonidet P-40), antibody on protein A beads, 4°C overnight; Western blot of the precipitates
[1] = target: HBV core protein (hepatitis B virus, serotype ayw (in HepG2.2.15 cells)) (UniProt P03146)
[2] = target: HBx protein (hepatitis B virus, serotype ayw (in HepG2.2.15 cells)) (UniProt P03165)
[3] = target: GATA-3 (human (endogenous in HepG2.2.15)) (UniProt P23771)
[4] = target: GATA-2 (human (endogenous in HepG2.2.15)) (UniProt P23769)

| Substance | binding [1] | binding [2] | binding [3] | binding [4] |
| --- | --- | --- | --- | --- |
| GATA-2 (from UniProt P23769 1-480) | no binding | binds | binds | – |
| GATA-3 (from UniProt P23771 1-443) | no binding | binds | – | binds |
| HBx protein (from UniProt P03165 1-154) | – | – | binds | binds |
